# Assay results published in PubChem BioAssay AID504333 (National Center for Advancing Translational Sciences (NCATS), 2011).
# In all, about 360,000 compounds went through this assay and about 16,000 (4.4%) were called active. The inconclusive results got no clear call from the source; some entries with a clear call stand among them for comparison. Calls come from the whole dose curve; as a rule, active = well fitted inhibition curve with a large enough effect; inconclusive = small, poorly fitted or top-dose-only effect; inactive = no such curve, though single readings can be large or run the other way. A potency beside an inconclusive call is a rough fit, not a confirmed value.
# Biological target: Bromodomain adjacent to zinc finger domain protein 2B (Homo sapiens) (UniProt Q9UIF8)
# Assay: qHTS Assay for Inhibitors of BAZ2B; note: nearly all actives have a fitted effect of over 60% in size
# Conditions: AlphaScreen BAZ2B-H3K14Ac peptide displacement; series mostly up to 114 µM
# In short: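 Complex of BAZ2B and biotin-H3K14Ac (50 nM apiece) forms over 30 min at RT, then faces library compounds up to 110 uM for another 30 min; AlphaScreen beads added, 20 min dark incubation, luminescence read.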
# Potency is the fitted concentration of half-maximal effect; tags give direction and shape of the fitted curve.
# UniProt Q9UIF8, sequence (Q9UIF8 whole entry, looked up, the tested form may be a part): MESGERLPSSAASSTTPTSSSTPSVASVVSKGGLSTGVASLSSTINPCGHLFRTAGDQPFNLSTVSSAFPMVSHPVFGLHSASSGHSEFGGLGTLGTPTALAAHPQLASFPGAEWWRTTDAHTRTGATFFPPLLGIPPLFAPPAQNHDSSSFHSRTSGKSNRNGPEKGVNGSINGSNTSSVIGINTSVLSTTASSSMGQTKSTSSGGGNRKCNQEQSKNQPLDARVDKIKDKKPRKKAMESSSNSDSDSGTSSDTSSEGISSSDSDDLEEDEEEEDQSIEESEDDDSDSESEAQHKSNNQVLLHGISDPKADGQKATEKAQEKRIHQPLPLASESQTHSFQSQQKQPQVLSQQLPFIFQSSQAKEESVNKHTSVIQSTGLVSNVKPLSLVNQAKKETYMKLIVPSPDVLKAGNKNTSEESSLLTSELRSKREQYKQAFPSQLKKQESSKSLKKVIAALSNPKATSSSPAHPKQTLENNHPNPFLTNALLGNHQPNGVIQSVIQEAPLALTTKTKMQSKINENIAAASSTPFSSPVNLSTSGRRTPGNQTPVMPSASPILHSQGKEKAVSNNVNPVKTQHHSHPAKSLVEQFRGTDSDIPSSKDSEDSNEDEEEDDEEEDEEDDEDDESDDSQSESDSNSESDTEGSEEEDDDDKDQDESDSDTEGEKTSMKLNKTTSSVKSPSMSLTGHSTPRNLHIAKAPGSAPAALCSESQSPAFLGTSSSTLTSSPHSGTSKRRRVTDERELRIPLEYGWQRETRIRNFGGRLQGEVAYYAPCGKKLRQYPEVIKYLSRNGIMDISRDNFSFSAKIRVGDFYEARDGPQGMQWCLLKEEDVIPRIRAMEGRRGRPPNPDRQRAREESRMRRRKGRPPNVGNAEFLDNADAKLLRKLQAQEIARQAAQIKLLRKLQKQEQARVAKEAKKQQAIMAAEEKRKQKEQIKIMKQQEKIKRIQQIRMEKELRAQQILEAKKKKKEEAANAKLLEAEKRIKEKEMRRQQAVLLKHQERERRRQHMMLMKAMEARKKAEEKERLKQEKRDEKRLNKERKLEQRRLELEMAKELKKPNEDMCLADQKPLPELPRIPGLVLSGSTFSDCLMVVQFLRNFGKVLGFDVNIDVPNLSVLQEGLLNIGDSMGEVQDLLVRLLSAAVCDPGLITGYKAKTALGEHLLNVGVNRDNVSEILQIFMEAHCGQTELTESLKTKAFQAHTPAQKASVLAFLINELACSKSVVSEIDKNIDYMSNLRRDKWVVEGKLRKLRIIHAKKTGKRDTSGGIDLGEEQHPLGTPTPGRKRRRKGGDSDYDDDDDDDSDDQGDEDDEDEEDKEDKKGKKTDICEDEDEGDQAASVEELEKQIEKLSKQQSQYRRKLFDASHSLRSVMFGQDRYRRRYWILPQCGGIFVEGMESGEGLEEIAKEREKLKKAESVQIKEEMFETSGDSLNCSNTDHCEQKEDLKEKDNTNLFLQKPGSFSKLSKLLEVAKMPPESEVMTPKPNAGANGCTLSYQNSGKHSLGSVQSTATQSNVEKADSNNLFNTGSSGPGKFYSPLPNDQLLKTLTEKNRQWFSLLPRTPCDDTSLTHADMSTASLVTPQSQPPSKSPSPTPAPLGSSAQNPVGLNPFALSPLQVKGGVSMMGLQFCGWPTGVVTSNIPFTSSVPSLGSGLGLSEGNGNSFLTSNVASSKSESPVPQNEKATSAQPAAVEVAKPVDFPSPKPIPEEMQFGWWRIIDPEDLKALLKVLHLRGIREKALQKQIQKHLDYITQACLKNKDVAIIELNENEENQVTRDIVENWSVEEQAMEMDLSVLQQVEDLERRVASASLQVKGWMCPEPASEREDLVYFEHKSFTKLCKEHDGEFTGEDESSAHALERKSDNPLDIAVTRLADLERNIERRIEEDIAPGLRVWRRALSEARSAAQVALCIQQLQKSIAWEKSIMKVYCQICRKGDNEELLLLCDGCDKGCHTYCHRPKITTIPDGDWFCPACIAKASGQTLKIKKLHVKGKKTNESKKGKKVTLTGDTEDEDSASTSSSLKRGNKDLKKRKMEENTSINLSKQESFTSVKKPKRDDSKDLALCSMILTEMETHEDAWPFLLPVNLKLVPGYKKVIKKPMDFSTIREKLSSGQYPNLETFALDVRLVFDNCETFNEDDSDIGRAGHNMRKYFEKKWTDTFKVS
row,Compound,Potency
1,O=[N+]([O-])c1ccc(N2CCc3ccccc3C2)cc1,"inconclusive: 100 µM [inhibitor, partial curve]"
2,Cc1cc2c(cc1C)-c1c(ssc1=Nc1ccc(S(N)(=O)=O)cc1)C(C)(C)N2,"inconclusive: 7.08 µM [inhibitor, full curve]"
3,Cn1c(NNC(=O)C(c2ccccc2)c2ccccc2)cc(=O)n(C)c1=O,inactive
4,COc1ccc2cc(CN(Cc3cccnc3)S(=O)(=O)c3ccccc3)c(=O)[nH]c2c1,"inconclusive: 89.1 µM [inhibitor, single point]"
5,Cc1ccc(NC(=O)C2COc3ccccc3O2)nc1 (stereo not given),inactive
6,Cc1c(C(=O)NCc2ccccc2Cl)sc2nc3n(c(=O)c12)CCCC3,inactive
7,CCOC(=O)C1CCCN(C(=O)/C=C/c2ccccc2[N+](=O)[O-])C1 (stereo not given),inactive
8,CCC1CCC(C(=O)NNC(=O)c2cc(-c3ccco3)[nH]n2)CC1 (stereo not given),"inconclusive: 70.8 µM [inhibitor, single point]"
9,COc1ccc(Br)c2c1-c1nc(NC(=O)c3ccc(F)cc3)sc1C2,active: 70.8 µM
10,Cn1nc(-c2ccc(N3CCCCC3)c(NC(=O)c3ccco3)c2)c2ccccc2c1=O,"inconclusive: 44.7 µM [inhibitor, partial curve]"
11,COc1ccc(/C(O)=C2\C(=O)C(=O)N(c3cc(C)on3)C2c2cccc(OC)c2OC)cc1C (stereo not given),"inconclusive: 89.1 µM [inhibitor, single point]"
12,Cc1ccc(-c2csc(N(CCCN3CCOCC3)C(=O)c3ccco3)n2)cc1,"inconclusive: 35.5 µM [inhibitor, partial curve]"
13,COc1ccc(N2C(=O)[C@@H]3[C@H](C2=O)[C@H](C(C)=O)N2c4ccccc4C=C[C@@H]32)cc1,"inconclusive: 79.4 µM [inhibitor, single point]"
14,OCCN1CCN(CC(O)COc2ccc(C34CC5CC(CC(C5)C3)C4)cc2)CC1 (stereo not given),"inconclusive: 56.2 µM [inhibitor, partial curve, poor fit]"
15,CCOC(=O)Cn1c(=O)n(-c2ccccc2OC)c2nc(-c3ccccc3)nc(C(N)=O)c21,inactive
16,COc1ccc(NC2=C(NC(C)=O)C(=O)c3ccccc3C2=O)cc1,"inconclusive: 56.2 µM [inhibitor, partial curve]"
17,COc1ccc(C2=CC(c3ccccc3Cl)n3nc(-c4ccc(C)cc4)nc3N2)cc1 (stereo not given),active: 11.2 µM
18,COc1cnc(-c2ccccn2)nc1Oc1ccc(F)cc1F,active: 39.8 µM
19,Cc1nc(NC2CCCC2)sc1C(=O)N(C)C,"inconclusive: 10 µM [inhibitor, partial curve, poor fit]"
20,CCC12CN3CC(CC)(CN(C1)C3c1cccc(OC)c1O)C2=O (stereo not given),inactive
21,Cc1cc(C)n(-c2nnc(C)n2NS(C)(=O)=O)n1,"inconclusive: 89.1 µM [inhibitor, single point]"
22,CCCCC(=O)Nc1nc(C)c(-c2csc(Nc3cc(OC)ccc3OC)n2)s1,"inconclusive: 50.1 µM [inhibitor, partial curve]"
23,O=C(O)COn1c(-c2ccccc2)nc2ccc([N+](=O)[O-])cc21,active: 50.1 µM

row,Compound,Potency
1,CCOc1ccccc1NC(=O)c1csc(C)c1C,inactive
2,CC(C)C(NS(=O)(=O)c1cccc2nsnc12)C(=O)Nc1nccs1 (stereo not given),inactive
3,Cc1oc(-c2ccccc2)cc1C(N)=O,"inconclusive: 79.4 µM [inhibitor, single point]"
4,O=C(Nc1ccc(Cl)c(Cl)c1)Nc1nnc(-c2ccncc2)s1,"inconclusive: 5.01 µM [inhibitor, full curve, poor fit]"
5,CCn1c(N2CCN(S(=O)(=O)c3ccccc3C(F)(F)F)CC2)nc2ccccc21,"inconclusive: 89.1 µM [inhibitor, single point]"
6,Cc1cc(C(=O)O)ccc1-n1c(C)cc(/C=C(/C#N)C(=O)Nc2ccccc2)c1C,"inconclusive: 79.4 µM [inhibitor, single point]"
7,COc1ccc(CN2CCN(C(=O)c3ccc(CNS(=O)(=O)c4ccc(C)cc4)cc3)CC2)c(OC)c1OC,"inconclusive: 79.4 µM [inhibitor, single point]"
8,COc1ccc(C(=O)Nc2cccc(/C(C)=N\NC(=O)c3ccoc3C)c2)cc1OC,"inconclusive: 79.4 µM [inhibitor, single point]"
9,COc1cccc(NS(=O)(=O)c2ccc3[nH]c4c(c3c2)CCCCCC4)c1,"inconclusive: 44.7 µM [inhibitor, partial curve]"
10,NC(=O)CC(NC(=O)Cc1ccc(Br)cc1)c1ccc(NCc2ccccn2)c([N+](=O)[O-])c1 (stereo not given),active: 79.4 µM
11,CC(=O)c1ccc(N=Nc2ccc(N)cc2)cc1,"inconclusive: 28.2 µM [inhibitor, partial curve]"
12,O=C(O)c1ccccc1C(=O)Nc1n[nH]c(=S)s1,active: 31.6 µM
13,O=c1c2cc(Br)ccc2nc(-c2ccccc2)n1O,"inconclusive: 70.8 µM [inhibitor, partial curve]"
14,COc1cccc(-c2nc(CS(=O)(=O)CC(=O)NCCCN3C(C)CCCC3C)c(C)o2)c1 (stereo not given),inactive
15,COc1ccccc1Cn1c(=S)[nH]c2cc(C(=O)NCCN(C)C)ccc2c1=O,inactive
16,Cc1cc(Cl)c(OCCCCN2CCOCC2)c(Br)c1,active: 50.1 µM
17,COc1cc(-c2cc(=O)c3c(O)c(OC)c(OC)c(O)c3o2)ccc1O,"inconclusive: 56.2 µM [inhibitor, partial curve]"
18,CC(C)CCOc1ccc(Cn2c(=O)sc3ccccc32)cc1,inactive
19,COc1ccc(-c2cc(C)no2)cc1S(=O)(=O)N1CCN(c2ccccn2)CC1,"inconclusive: 70.8 µM [inhibitor, partial curve]"
20,COC(=O)c1c(C)[nH]c(C)c1-c1ccc([N+](=O)[O-])cc1,"inconclusive: 56.2 µM [inhibitor, partial curve]"
21,CCOC(=O)c1[nH]c2ccccc2c1NC(=S)Nc1cc(C)ccc1C,"inconclusive: 79.4 µM [inhibitor, single point]"
22,Cc1nnc(SCC(=O)Nc2ccc(S(=O)(=O)Nc3ccc(Cl)nn3)cc2)s1,active: 50.1 µM
